# Assay results reported in PubChem BioAssay AID1345082 (National Center for Advancing Translational Sciences (NCATS), 2018).
# The campaign covered roughly 94,000 compounds. About 4,000 (4.3%) were called active. Inconclusive results, whose numbers are uncertain, are shown with a selection of clear calls. The call rests on the fitted dose curve; in most records, active means well fitted inhibition curve with a large enough effect; inconclusive means small, poorly fitted or top-dose-only effect; inactive means no such curve, though single readings can be large or run the other way. Potencies beside an inconclusive call are fits to weak or partial responses and may not hold up.
# Experiment: Cytotoxic Profiling in NIH 3T3 Cell Line of Diverse Libraries Using Quantitative High-Throughput Screening; further: nearly all actives have a fitted effect of over 55% in size
# Settings: NIH 3T3 viability, CellTiter-Glo ATP luminescence, 48-72 h; series mostly up to 96.7 µM
# Outline: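 Luminescent ATP readout (CellTiter-Glo, 10 min RT) after 48 or 72 hr compound exposure of NIH 3T3 cells seeded at 400 cells/well in 1536-well format; quantitative HTS.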
# Potency means the concentration at half of the fitted maximal effect; tags describe the fitted curve by direction and shape.
row,Structure (SMILES),Potency
1,CCC1(N2CCN(C(=O)c3cccc(OC(F)(F)F)c3)CC2)CCN(S(C)(=O)=O)C1 (stereo not given),inactive
2,COc1ccc2c(c1)CN(Cc1ccccc1)C(=O)CCN2C[C@@H](O)COCc1ccccc1,"inconclusive: 39.8 µM [inhibitor, partial curve]"
3,COc1ccc(CNC(=O)c2cc3cn(C4CC4)cc3s2)cc1OC,"inconclusive: 79.4 µM [inhibitor, single point]"
4,O=[S+]([O-])(Nc1cccnc1)c1ccc2c(c1)OCCN(Cc1ccc(F)cc1)C2,"inconclusive: 11.2 µM [inhibitor, full curve]"
5,COC(=O)CNC(=O)c1nc(-c2ccc(Cl)cc2Cl)c2ccccn12,"inconclusive: 44.7 µM [inhibitor, partial curve, poor fit]"
6,O=C1N(Cc2ccccc2F)CCOC12CCN(Cc1ccccc1F)CC2,inactive
7,CN1C(=O)CCC2(CNC(=O)C3CC3)CCCC=C12 (stereo not given),inactive
8,CCOc1ccc2c(n1)CCN(C(=O)c1cccc(OC)c1OC)C2,inactive
9,C[S+](=O)([O-])CCn1ncc2cc(OCc3cccc(-c4ccccc4)c3)ccc21,"inconclusive: 50.1 µM [inhibitor, partial curve]"
10,COc1ccccc1C(=O)N1CCCC(c2nn(-c3ccc(Cl)cc3)c(=O)[nH]2)C1 (stereo not given),"inconclusive: 70.8 µM [inhibitor, single point]"
11,Cc1ccc(-c2c(C(=O)N3CCCCC3)nc3sccn23)cc1,"inconclusive: 50.1 µM [inhibitor, partial curve, poor fit]"
12,Cc1cccc(N2Cc3c(NCc4ccc5c(c4)OCO5)ncnc3N(C)CC2=O)c1,"inconclusive: 50.1 µM [inhibitor, partial curve, poor fit]"
13,O=C(Nc1ccc2c(c1)CN(C(=O)COc1ccccc1)CCO2)C1CC1,"inconclusive: 39.8 µM [inhibitor, partial curve, poor fit]"
14,N#Cc1cccc(-c2c(C(=O)NCCc3ccccc3)nc3sccn23)c1,"inconclusive: 44.7 µM [inhibitor, partial curve, poor fit]"
15,Cc1cccc(OCCc2noc(C3CCCCN3S(=O)(=O)c3cn(C)cn3)n2)c1 (stereo not given),inactive
16,CC1=C[C@@H](CC#N)[C@H](C(C)C)C[C@H]1CC(=O)NC1CC1,inactive
17,COc1ccc(CN2CCCc3nc(C)nc(-c4ccc(O)cc4)c3C2)cc1,"inconclusive: 44.7 µM [inhibitor, partial curve, poor fit]"
18,C=CCN(C)C(=O)[C@@H](C)C1CC[C@@]2(C)Cc3sc(-c4cccnc4)nc3[C@@H](C)[C@@H]2[C@H]1O (stereo not given in full),"inconclusive: 39.8 µM [inhibitor, full curve, poor fit]"
19,COc1cccc(NC(=O)N[C@H]2[C@H](O)[C@@H](N3CCC(Cc4ccccc4)CC3)[C@@H]3OC[C@H]2O3)c1,"inconclusive: 89.1 µM [inhibitor, partial curve, poor fit]"
20,C=CCOc1c(OC)ccc2c1CN(Cc1ccco1)C(=O)CCN2C[C@@H](O)COCc1ccccc1,"inconclusive: 44.7 µM [inhibitor, partial curve, poor fit]"
21,CSc1ccccc1C(=O)N(C)C1CCCN(CCCc2ccccc2)C1 (stereo not given),inactive
22,COc1ccccc1-c1cc(C(=O)NCC#N)c2cnn(C)c2n1,"inconclusive: 89.1 µM [inhibitor, single point]"

row,Structure (SMILES),Potency
1,NCc1ccc(-c2cccnc2)cc1,inactive
2,CCC(C(=O)N1CCC2(CC1)C(=O)N(CC(=O)NCC(C)C)CN2c1ccccc1)c1ccccc1 (stereo not given),"inconclusive: 50.1 µM [inhibitor, partial curve, poor fit]"
3,Cn1nccc1-c1cc2c(ccn2C)c(C(=O)NCCc2cnc[nH]2)n1,"inconclusive: 44.7 µM [inhibitor, full curve]"
4,O=C(NCc1ccccc1)c1cnc2n1CCN(Cc1ccc(F)cc1)CC2,"inconclusive: 22.4 µM [inhibitor, full curve, poor fit]"
5,Cc1ccsc1C(=O)NCC1Cn2cccc2CN1C (stereo not given),"inconclusive: 50.1 µM [inhibitor, partial curve, poor fit]"
6,Cc1nnc(-c2cc(-c3ccccc3Oc3ccccc3)ccn2)n1C1CCN(C)CC1,"inconclusive: 79.4 µM [inhibitor, partial curve, poor fit]"
7,CCn1ccnc1CN(CC1CCN(CCc2ccccc2C)CC1)C1CCCC1,"inconclusive: 56.2 µM [inhibitor, partial curve, poor fit]"
8,COc1ccc(Cn2c3c(c(=O)n2Cc2ccccc2)CCN(C(=O)c2cccc(O)c2)C3)cc1,"inconclusive: 5.62 µM [inhibitor, full curve, poor fit]"
9,CCc1noc(-c2cccn3c(CNC(=O)c4ccccc4)nnc23)n1,inactive
10,C1CCC(CN2CCCC(c3nc(CCOCC4CCOCC4)no3)C2)CC1 (stereo not given),inactive
11,C[C@H]1[C@@H]2[C@@H](O)C([C@H](C)C(=O)NCc3cccs3)CC[C@@]2(C)CC[C@@H]1NC(=O)Cc1ccccc1 (stereo not given in full),"inconclusive: 50.1 µM [inhibitor, partial curve, poor fit]"
12,O=C1CC(c2ccccc2)N(Cc2ccncc2)CCCN(C(=O)c2cc3ccccc3[nH]2)CCN1 (stereo not given),"inconclusive: 50.1 µM [inhibitor, partial curve, poor fit]"
13,COCCN1C(=O)c2ccccc2C(C(=O)Nc2nc3c(s2)CCC3)C12CCCCC2 (stereo not given),"inconclusive: 50.1 µM [inhibitor, partial curve, poor fit]"
14,CNC(=O)[C@@H](c1ccccc1F)N1CCC[C@H]1C(=O)NCCOC,inactive
15,CC(C)c1nc2c(c(-c3ccc(O)cc3)n1)CN(C(=O)c1ccc(C(F)(F)F)cc1)CC2,"inconclusive: 50.1 µM [inhibitor, partial curve, poor fit]"
16,CN1CC(=O)N(c2ccccc2F)Cc2c(NCc3cccs3)ncnc21,"inconclusive: 70.8 µM [inhibitor, single point]"
17,CC(C)N(C)C(=O)Cn1ncc(N(C)CCc2ccccc2)cc1=O,inactive
18,COc1ccc(C(=O)NC[C@@H]2CC[C@H]3C[C@@H]2C3(C)C)cc1,"inconclusive: 56.2 µM [inhibitor, partial curve, poor fit]"
19,O=C(NC1CCCC1)N1CCCC(Cn2c(C3CC3)nc3cccnc32)C1 (stereo not given),inactive
20,COc1ccc(-c2ccc(C(=O)N3CCN(C(=O)c4ccc(F)cc4)CC3)cc2)nn1,inactive
21,COc1ccc(NC(=O)C2(Cc3cccnc3)CCCCC(=O)N2)c(OC)c1 (stereo not given),"inconclusive: 70.8 µM [inhibitor, single point]"
22,Cc1ccccc1CNC(=O)C1CCC(=O)N(CCCc2ccccc2)C1 (stereo not given),inactive

row,Structure (SMILES),Potency
1,O=C(NC1C[C@H]2CC[C@@H](C1)N2C(=O)C1CCCCC1)c1ccc(F)cc1 (stereo not given in full),inactive
2,COCC1CN(C(=O)CC2=CCCCC2)CC12CCNCC2 (stereo not given),inactive
3,CN(C)c1ncnc2sc3c(c12)CCN(Cc1ccncc1)C3,"inconclusive: 70.8 µM [inhibitor, partial curve, poor fit]"
4,C#CCNC(=O)c1nc2sccn2c1-c1cccc(C(F)(F)F)c1,"inconclusive: 100 µM [inhibitor, partial curve, poor fit]"
5,O=C1CC(c2noc(-c3ccccc3F)n2)CN1c1ccc(Cl)cc1 (stereo not given),"inconclusive: 44.7 µM [inhibitor, partial curve, poor fit]"
6,COCCCNC(=O)c1ccc2c(c1)C(O)CCCCCN2CCOC (stereo not given),inactive
7,O=C1CN(S(=O)(=O)c2ccccc2)CC2(CCCCC2)N1CC1CC1,"inconclusive: 56.2 µM [inhibitor, partial curve, poor fit]"
8,Cc1ccc(OC2CN(C(=O)c3ccc(F)cc3)C2)cc1C,"inconclusive: 56.2 µM [inhibitor, partial curve, poor fit]"
9,O=C(c1nccc2ccccc12)N1CCC2(CC1)CC(CCOCc1ccccc1)CCO2 (stereo not given),"inconclusive: 50.1 µM [inhibitor, partial curve, poor fit]"
10,Cc1ccc(Nc2ccnc(N3CCCN(C(=O)NC4CCCC4)C3)n2)cc1,active: 25.1 µM
11,O=S(=O)(c1ccc(F)cc1)N1CCOC[C@H](Oc2ccc(C(F)(F)F)cn2)C1,"inconclusive: 112 µM [inhibitor, single point]"
12,CCn1ccc(C(=O)NC2CCCN(c3cc(-c4ccc(OC)cc4)[nH]n3)C2)n1 (stereo not given),inactive
13,NC(=O)c1csc(S(=O)(=O)N2CCC(CO)(CN3CCCC3)CC2)c1,inactive
14,O=C(NCCC1CCCCC1)c1c[nH]c2ncccc12,"inconclusive: 56.2 µM [inhibitor, partial curve, poor fit]"
15,COC[C@@H]1[C@H](NC(=O)c2cn(CCN3CCNCC3)nn2)[C@@H]2CCO[C@H]12,inactive
16,CNC(=O)CCn1ncc2cc(OCc3ccccc3-c3cc(F)cc(OC)c3)ccc21,"inconclusive: 56.2 µM [inhibitor, partial curve, poor fit]"
17,CN(C)Cc1cn(C[C@H]2C[C@@H](NS(=O)(=O)c3ccccc3)[C@H](O)[C@@H]2O)nn1,inactive
18,COc1ccc(Cl)cc1NC(=O)C[C@H]1NC(=O)c2ccccc2NC1=O,"inconclusive: 20 µM [inhibitor, full curve, poor fit]"
19,Cc1ccc(C)c(NC(=O)Cn2c(N3CCC(C)CC3)nc(C)cc2=O)c1,"inconclusive: 31.6 µM [inhibitor, full curve]"
20,COc1ccccc1CN1CC[C@@H](CO)N(C)c2ncccc2C1,active: 35.5 µM
21,O=C(c1ccoc1)N1CCC(Oc2ccccc2-c2nc(-c3ccccc3)no2)C1 (stereo not given),"inconclusive: 44.7 µM [inhibitor, partial curve, poor fit]"
